Data reported in PubChem BioAssay AID485294 (National Center for Advancing Translational Sciences (NCATS), 2010).
The campaign covered roughly 370,000 compounds. About 150 (0.041%) were called active. Inconclusive results, whose numbers are uncertain, are shown with a selection of clear calls. Calls come from the whole dose curve; as a rule, active = well fitted inhibition curve with a large enough effect; inconclusive = small, poorly fitted or top-dose-only effect; inactive = flat fitted curve, though single readings scatter. Potencies of inconclusive entries are left out as doubtful fits.
Note: nearly all actives have a fitted effect of over 25% in size.
Potency is the fitted concentration of half-maximal effect; tags give direction and shape of the fitted curve.
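Throughout, for activity change, negative = inhibition: 0% = no-compound wells and -100% = no-enzyme wells.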

These compounds were tested against Beta-lactamase (Escherichia coli (strain K12)) (UniProt P00811) (assay: qHTS Inhibitors of AmpC Beta-Lactamase (assay with detergent)). Details: AmpC hydrolysis of nitrocefin, absorbance 480 nm, 0.01% Triton; activity change, negative = inhibition: at 114 µM (top of the series).
Sequence of UniProt P00811 (P00811 whole entry, looked up): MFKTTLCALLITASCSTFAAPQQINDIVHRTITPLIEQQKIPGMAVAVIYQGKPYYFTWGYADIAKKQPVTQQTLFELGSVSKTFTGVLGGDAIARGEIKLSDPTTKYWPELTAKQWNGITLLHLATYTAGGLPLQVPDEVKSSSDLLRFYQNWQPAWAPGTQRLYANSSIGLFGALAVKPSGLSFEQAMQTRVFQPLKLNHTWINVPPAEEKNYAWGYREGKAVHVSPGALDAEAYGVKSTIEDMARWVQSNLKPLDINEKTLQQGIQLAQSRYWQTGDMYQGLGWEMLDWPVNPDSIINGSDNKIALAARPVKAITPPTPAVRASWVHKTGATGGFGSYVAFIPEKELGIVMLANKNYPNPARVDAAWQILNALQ
Procedure, shortened: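 AmpC (5.3 nM in the dispensed reagent) in 20 mM phosphate pH 7.0 with 0.01% (detergent screen) or 0.0001% Triton X-100 was preincubated with compounds for 15 min at room temperature. Nitrocefin was then added from an 800 uM solution, and hydrolysis was followed at 480 nm.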
`CCN(CC)CCN1CCn2c3c(c4cc(C)ccc42)CCCC31` (stereo not given) was tested, and the “activity change, negative = inhibition” value was inactive: -6.85%. `Cn1c(=O)c2c(ncn2CC(O)CNc2ccc(Br)cc2)n(C)c1=O` (stereo not given) was tested, and the Potency was inconclusive [inhibitor, full curve, poor fit]. In the case of `O=C(CCCC(=O)N1CCN(c2ccc([N+](=O)[O-])cc2)CC1)c1ccccc1`, the Potency is reported as inconclusive [inhibitor, single point]. `Clc1ccc2c(c1)c1ccccc1n2CN1CCOCC1` was tested, and the “activity change, negative = inhibition” value was inactive: -19.3%. `COc1ccc2c(c1)c(C(C)=O)c(C)n2CCc1ccc(OC)c(OC)c1` was tested, and the Potency was inconclusive [inhibitor, full curve, poor fit]. With `O=C(c1ccc(S(=O)(=O)N2CCOCC2)cc1)N1CCN(c2ccc(F)cc2)CC1` the Potency was inconclusive [inhibitor, full curve, poor fit]. With `Cc1cccc(C)c1NC(=O)c1c(C)oc2c1C1=NCCN1C=N2` the “activity change, negative = inhibition” value was inactive: 22.8%. `Cc1nc(SCC(=O)N2CCOCC2)c2ccsc2n1` was tested, and the Potency was inconclusive [inhibitor, single point]. For `CCCCn1c(=O)nc2n(-c3ccccc3)c3ccccc3cc-2c1=O`, the Potency was inconclusive [inhibitor, full curve]. In the case of `CCOCCCNC(=O)c1ccc2c(c1)ncn2-c1ccc(C)cc1C`, the “activity change, negative = inhibition” value is reported as inactive: -4.82%. For `c1ccc2c(N3CCNCC3)nsc2c1`, the “activity change, negative = inhibition” value was inactive: 5.39%. In the case of `C=CCC(CC=C)(NC(=O)c1ccccc1)c1ccccc1`, the Potency is reported as inconclusive [inhibitor, partial curve]. `Cc1cnnn1-c1ccc(C(=O)CCl)cc1` was tested, and the “activity change, negative = inhibition” value was inactive: -10.4%. For `CCOc1ccccc1OCCCC(=O)N1CCN(S(=O)(=O)c2cccc(F)c2)CC1`, the Potency was inconclusive [inhibitor, full curve, poor fit]. For `COc1ccc2c(c1)C1NC(=S)NC(C)(O2)C1C(=O)Nc1ccccc1C` (stereo not given), the Potency was inconclusive [inhibitor, single point]. With `Cc1ccc(CS(=O)(=O)c2ccc(C(=O)N3CCCCC3)cc2[N+](=O)[O-])cc1` the “activity change, negative = inhibition” value was inactive: -2.87%. In the case of `Cc1ccc(N2CC(C(=O)N/N=C/c3cccc([N+](=O)[O-])c3)CC2=O)cc1` (stereo not given), the Potency is reported as inconclusive [inhibitor, full curve, poor fit]. In the case of `COc1ccc(Cn2c(=S)[nH]c3cc(OC)c(OC)cc3c2=O)cc1`, the “activity change, negative = inhibition” value is reported as inactive: 7.31%. In the case of `CCc1ccccc1NS(=O)(=O)c1ccc(-c2coc(C)n2)cc1`, the “activity change, negative = inhibition” value is reported as inactive: 2.31%. For `Cc1cccc(NC(=O)c2cc(S(=O)(=O)N3CCCCC3)ccc2Cl)n1`, the Potency was inconclusive [inhibitor, partial curve]. In the case of `CS/C(=N\S(=O)(=O)c1cccs1)NC(=O)CSc1nc2ccccc2s1`, the Potency is reported as inconclusive [inhibitor, full curve]. With `COc1ccc(C(=O)CSc2nnc(-c3ccco3)n2C)cc1` the Potency was inconclusive [inhibitor, full curve, poor fit]. `CC(=O)N1c2ccc(S(=O)(=O)NCCC(=O)Nc3ccc(C)cn3)cc2CC1C` (stereo not given) was tested, and the Potency was inconclusive [inhibitor, partial curve, poor fit]. `CSc1ccc(S(=O)(=O)NCC(=O)OCC(=O)N2CC(C)CC(C)C2)cc1[N+](=O)[O-]` (stereo not given) was tested, and the Potency was inconclusive [inhibitor, full curve, poor fit]. With `CCc1nnc(NS(=O)(=O)c2ccc(N=Cc3c(C)[nH]n(-c4cccc(Cl)c4)c3=O)cc2)s1` the Potency was inconclusive [inhibitor, full curve, poor fit]. In the case of `O=C(O)/C=C/C(=O)N1CCN(C(=O)/C=C/C(=O)O)CC1`, the Potency is reported as inconclusive [inhibitor, full curve, poor fit]. With `COc1cccc(C2CC(c3cccs3)=NN2C(=O)CSc2nc3c(cnn3-c3ccc(F)cc3)c(=O)[nH]2)c1OC` (stereo not given) the Potency was inconclusive [inhibitor, partial curve]. For `Cc1cc(N/N=C/c2ccc(O)cc2O)nc(-n2nc(C)cc2C)n1`, the Potency was inconclusive [inhibitor, full curve]. `CCOC(=O)c1ccc(N/C=C2/CCCC(C)C2=O)cc1` (stereo not given) was tested, and the “activity change, negative = inhibition” value was inactive: -4.98%. In the case of `O=C(NCCc1ccc(Cl)cc1)c1ccc2nccnc2c1`, the “activity change, negative = inhibition” value is reported as inactive: 0.513%. For `CCOc1ccc(CCNS(=O)(=O)c2ccc3c(c2)NC(=O)CC(=O)N3)cc1OCC`, the Potency was inconclusive [inhibitor, full curve]. With `CCCN(CCC)CCCNC(=O)c1cc2c(=O)n(CC)c3ccccc3c2s1` the “activity change, negative = inhibition” value was inactive: -2.29%. `Cc1cccc(Nc2c3c(nc4ccccc24)CCC3)c1` was tested, and the “activity change, negative = inhibition” value was inactive: 5.55%. In the case of `CCCCn1c(CNC(=O)c2cccs2)nc2ccccc21`, the Potency is reported as inconclusive [inhibitor, full curve]. `COc1cc(C(=O)NCC2CCCO2)ccc1OCc1ccc(Cl)cc1Cl` (stereo not given) was tested, and the Potency was inconclusive [inhibitor, full curve, poor fit]. `O=C(CCc1nnc(C2CCCCC2)o1)N1CCN(C2CCCCC2)CC1` was tested, and the “activity change, negative = inhibition” value was inactive: -6.34%. For `CC(OC(=O)CNC(=O)C12CC3CC(CC(C3)C1)C2)C(=O)Nc1ccc(N2CCOCC2)cc1` (stereo not given), the Potency was inconclusive [inhibitor, partial curve]. `Cc1ccc(-c2csc(NC(=O)/C=C/c3cccs3)n2)cc1C` was tested, and the “activity change, negative = inhibition” value was inactive: 7.09%. For `COC(=O)CNC(=O)C1Cc2ccccc2CN1S(=O)(=O)c1ccc(F)cc1` (stereo not given), the “activity change, negative = inhibition” value was inactive: -4.61%. For `COc1ccc(Nc2nc(N)c([N+](=O)[O-])c(NC3CCCCC3)n2)cc1`, the “activity change, negative = inhibition” value was inactive: 1.25%. With `COc1cccc(-c2cc(C(=O)Nc3ccccc3SC)no2)c1` the Potency was inconclusive [inhibitor, partial curve]. For `Cc1cc(C)n(C(=O)CN2C(=O)c3ccccc3C2=O)n1`, the Potency was inconclusive [inhibitor, full curve, poor fit]. In the case of `CCOc1ccc(NC(=O)CN(c2ccccc2OCC)S(=O)(=O)c2ccccc2)cc1`, the “activity change, negative = inhibition” value is reported as inactive: 10.3%. For `NC(=O)c1cc(Cl)ccc1OCC(=O)N1CCCc2ccccc21`, the Potency was inconclusive [inhibitor, full curve, poor fit]. With `O=C1c2ccccc2C(=O)N1CCCP(=O)(O)CCc1ccccc1` the Potency was inconclusive [inhibitor, full curve].
